The supplement of paper PMC8728848
The other results are listed elsewhere or left out.

Key:
Assay in all cases: glycan array binding signal (z-score within array); higher = stronger binding
Conditions in all cases: glycan notation: IUPAC condensed, linker removed
[1] = molecular target: Gal(b1-3)GalNAc
In short: (§1)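 Glycan array data came from 3228 arrays in the Consortium for Functional Glycomics database, and only arrays with an available protein sequence were kept. Glycan names were put into IUPAC-condensed notation, and columns mapping to the same glycan were averaged. The binding signal is a within-array Z-score, averaged across arrays of one protein sequence run at different concentrations or buffers and across linkers. A negative Z-score can be read as non-binding.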

[2] = molecular target: Gal(b1-3)GalNAc(a1-3)[Fuc(a1-2)]Gal(b1-4)Glc
In short: as §1

[3] = molecular target: Gal(b1-3)GalNAc(a1-3)[Fuc(a1-2)]Gal(b1-4)GlcNAc
In short: as §1

[4] = molecular target: Gal(b1-3)GalNAc(b1-3)Gal(a1-4)Gal(b1-4)Glc
In short: as §1

[5] = molecular target: Gal(b1-3)GalNAc(b1-4)Gal(b1-4)Glc
In short: as §1

[6] = molecular target: Gal(b1-3)GalNAc(b1-4)[Neu5Ac(a2-3)]Gal(b1-4)Glc
In short: as §1

[7] = molecular target: Gal(b1-3)GlcNAc
In short: as §1

[8] = molecular target: Gal(b1-3)GlcNAc(a1-6)Gal(b1-4)GlcNAc
In short: as §1

[9] = molecular target: Gal(b1-3)GlcNAc(b1-2)Man(a1-3)[Gal(b1-3)GlcNAc(b1-2)Man(a1-6)]Man(b1-4)GlcNAc(b1-4)GlcNAc
In short: as §1

[10] = molecular target: Gal(b1-3)GlcNAc(b1-2)Man(a1-3)[Gal(b1-3)GlcNAc(b1-2)Man(a1-6)]Man(b1-4)GlcNAc(b1-4)[Fuc(a1-6)]GlcNAc
In short: as §1

[11] = molecular target: Gal(b1-3)GlcNAc(b1-3)Gal(b1-3)GlcNAc
In short: as §1

[12] = molecular target: Gal(b1-3)GlcNAc(b1-3)Gal(b1-4)Glc
In short: as §1

[13] = molecular target: Gal(b1-3)GlcNAc(b1-3)Gal(b1-4)GlcNAc
In short: as §1

[14] = molecular target: Gal(b1-3)GlcNAc(b1-3)Gal(b1-4)GlcNAc(b1-6)[Gal(b1-3)GlcNAc(b1-3)]Gal(b1-4)Glc
In short: as §1

[15] = molecular target: Gal(b1-3)GlcNAc(b1-3)Gal(b1-4)[Fuc(a1-3)]GlcNAc(b1-6)[Gal(b1-3)GlcNAc(b1-3)]Gal(b1-4)Glc
In short: as §1

[16] = molecular target: Gal(b1-3)GlcNAc(b1-3)GalNAc
In short: as §1

[17] = molecular target: Gal(b1-3)GlcNAc(b1-6)Gal(b1-4)GlcNAc
In short: as §1

[18] = molecular target: Gal(b1-3)[Fuc(a1-4)]GlcNAc
In short: as §1

[19] = molecular target: Gal(b1-3)[Fuc(a1-4)]GlcNAc(b1-2)Man(a1-3)[Gal(b1-3)[Fuc(a1-4)]GlcNAc(b1-2)Man(a1-6)]Man(b1-4)GlcNAc(b1-4)GlcNAc
In short: as §1

[20] = molecular target: Gal(b1-3)[Fuc(a1-4)]GlcNAc(b1-2)Man(a1-3)[Gal(b1-3)[Fuc(a1-4)]GlcNAc(b1-2)Man(a1-6)]Man(b1-4)GlcNAc(b1-4)[Fuc(a1-6)]GlcNAc
In short: as §1

[21] = molecular target: Gal(b1-3)[Fuc(a1-4)]GlcNAc(b1-3)Gal(b1-3)[Fuc(a1-4)]GlcNAc
In short: as §1

[22] = molecular target: Gal(b1-3)[Fuc(a1-4)]GlcNAc(b1-3)Gal(b1-4)GlcNAc
In short: as §1

[23] = molecular target: Gal(b1-3)[Fuc(a1-4)]GlcNAc(b1-3)Gal(b1-4)[Fuc(a1-3)]GlcNAc
In short: as §1

[24] = molecular target: Gal(b1-3)[GlcNAc(b1-6)]GalNAc
In short: as §1

[25] = molecular target: Gal(b1-3)[Neu5Ac(a2-6)]GalNAc
In short: as §1

[26] = molecular target: Gal(b1-3)[Neu5Ac(a2-6)]GlcNAc(b1-6)Gal(b1-4)Glc
In short: as §1

[27] = molecular target: Gal(b1-3)[Neu5Ac(b2-6)]GalNAc
In short: as §1

[28] = molecular target: Gal(b1-4)GalNAc(a1-3)[Fuc(a1-2)]Gal(b1-4)GlcNAc
In short: as §1

[29] = molecular target: Gal(b1-4)GalNAc(b1-3)[Fuc(a1-2)]Gal(b1-4)GlcNAc
In short: as §1

[30] = molecular target: Gal(b1-4)Glc
In short: as §1

[31] = molecular target: Gal(b1-4)Glc6S
In short: as §1

[32] = molecular target: Gal(b1-4)GlcNAc
In short: as §1

[33] = molecular target: Gal(b1-4)GlcNAc(a1-6)Gal(b1-4)GlcNAc
In short: as §1

[34] = molecular target: Gal(b1-4)GlcNAc(b1-2)Man(a1-3)Man(b1-4)GlcNAc(b1-4)GlcNAc
In short: as §1

[35] = molecular target: Gal(b1-4)GlcNAc(b1-2)Man(a1-3)[Gal(b1-4)GlcNAc(b1-2)Man(a1-6)]Man(b1-4)GlcNAc(b1-4)GlcNAc
In short: as §1

[36] = molecular target: Gal(b1-4)GlcNAc(b1-2)Man(a1-3)[Gal(b1-4)GlcNAc(b1-2)Man(a1-6)]Man(b1-4)GlcNAc(b1-4)[Fuc(a1-6)]GlcNAc
In short: as §1

[37] = molecular target: Gal(b1-4)GlcNAc(b1-2)Man(a1-3)[GlcNAc(b1-2)Man(a1-6)]Man(b1-4)GlcNAc(b1-4)GlcNAc
In short: as §1

[38] = molecular target: Gal(b1-4)GlcNAc(b1-2)Man(a1-3)[Man(a1-6)]Man(b1-4)GlcNAc(b1-4)GlcNAc
In short: as §1

[39] = molecular target: Gal(b1-4)GlcNAc(b1-2)Man(a1-6)Man(b1-4)GlcNAc(b1-4)GlcNAc
In short: as §1

[40] = molecular target: Gal(b1-4)GlcNAc(b1-2)Man(a1-6)[GlcNAc(b1-2)Man(a1-3)]Man(b1-4)GlcNAc(b1-4)GlcNAc
In short: as §1

[41] = molecular target: Gal(b1-4)GlcNAc(b1-2)Man(a1-6)[Man(a1-3)]Man(b1-4)GlcNAc(b1-4)GlcNAc
In short: as §1

[42] = molecular target: Gal(b1-4)GlcNAc(b1-2)[Gal(b1-4)GlcNAc(b1-4)]Man(a1-3)[Gal(b1-4)GlcNAc(b1-2)Man(a1-6)]Man(b1-4)GlcNAc(b1-4)GlcNAc
In short: as §1

[43] = molecular target: Gal(b1-4)GlcNAc(b1-2)[Gal(b1-4)GlcNAc(b1-4)]Man(a1-3)[Gal(b1-4)GlcNAc(b1-2)[Gal(b1-4)GlcNAc(b1-6)]Man(a1-6)]Man(b1-4)GlcNAc(b1-4)GlcNAc
In short: as §1

[44] = molecular target: Gal(b1-4)GlcNAc(b1-3)Gal(b1-3)GlcNAc
In short: as §1

[45] = molecular target: Gal(b1-4)GlcNAc(b1-3)Gal(b1-4)Glc
In short: as §1

B1: Mincle (Homo sapiens), Q9ULY5 (protein)
chain: MNSSKSSETQCTERGCFSSQMFLWTVAGIPILFLSACFITRCVVTFRIFQTCDEKKFQLPENFTELSCYNYGSGSVKNCCPLNWEYFQSSCYFFSTDTISWALSLKNCSAMGAHLVVINSQEEQEFLSYKKPKMREFFIGLSDQVVEGQWQWVDGTPLTKSLSFWDVGEPNNIATLEDCATMRDSSNPRQNWNDVTCFLNYFRICEMVGINPLNKGKSL
glycan array binding signal (z-score) [1]: -0.406
glycan array binding signal (z-score) [2]: -0.382
glycan array binding signal (z-score) [3]: -0.127
glycan array binding signal (z-score) [4]: -0.251
glycan array binding signal (z-score) [5]: -0.412
glycan array binding signal (z-score) [6]: -0.298
glycan array binding signal (z-score) [7]: -0.385
glycan array binding signal (z-score) [8]: -0.062
glycan array binding signal (z-score) [9]: 0.064
glycan array binding signal (z-score) [10]: 0.118
glycan array binding signal (z-score) [11]: -0.365
glycan array binding signal (z-score) [12]: -0.33
glycan array binding signal (z-score) [13]: -0.283
glycan array binding signal (z-score) [14]: 6.4
glycan array binding signal (z-score) [15]: 0.04
glycan array binding signal (z-score) [16]: -0.038
glycan array binding signal (z-score) [17]: -0.074
glycan array binding signal (z-score) [18]: -0.206
glycan array binding signal (z-score) [19]: 1.13
glycan array binding signal (z-score) [20]: -0.066
glycan array binding signal (z-score) [21]: -0.027
glycan array binding signal (z-score) [22]: -0.414
glycan array binding signal (z-score) [23]: -0.084
glycan array binding signal (z-score) [24]: -0.192
glycan array binding signal (z-score) [25]: -0.143
glycan array binding signal (z-score) [26]: -0.44
glycan array binding signal (z-score) [27]: -0.188
glycan array binding signal (z-score) [28]: -0.174
glycan array binding signal (z-score) [29]: -0.342
glycan array binding signal (z-score) [30]: -0.408
glycan array binding signal (z-score) [31]: 0.126
glycan array binding signal (z-score) [32]: -0.374
glycan array binding signal (z-score) [33]: -0.484
glycan array binding signal (z-score) [34]: -0.49
glycan array binding signal (z-score) [35]: 2.23
glycan array binding signal (z-score) [36]: -0.008
glycan array binding signal (z-score) [37]: 0.969
glycan array binding signal (z-score) [38]: -0.32
glycan array binding signal (z-score) [39]: -0.433
glycan array binding signal (z-score) [40]: 0.312
glycan array binding signal (z-score) [41]: 0.476
glycan array binding signal (z-score) [42]: -0.124
glycan array binding signal (z-score) [43]: -0.45
glycan array binding signal (z-score) [44]: -0.047
glycan array binding signal (z-score) [45]: 0.002
